In PubChem BioAssay AID504832 (National Center for Advancing Translational Sciences (NCATS), 2011):
The campaign covered roughly 310,000 compounds. About 18,000 (5.8%) were called active. The shares of active, inactive and inconclusive entries below differ from those in the screen. Calls follow the shape of the dose curve; as a rule, active = well fitted inhibition curve with a large enough effect; inconclusive = small, poorly fitted or top-dose-only effect, or another doubt; inactive = no such curve, though single readings can be large or run the other way. Potencies of inconclusive entries are left out as doubtful fits.
% is scaled to controls: 0 for no effect and ±100 for the full control effect; potency is read from the fitted curve at half-maximal effect; tags tell the direction and shape of the fitted curve.

Test: Primary qHTS for delayed death inhibitors of the malarial parasite plastid, 48 hour incubation
Details: P. falciparum luciferase growth in erythrocytes; series mostly up to 28.7 µM; activity change, negative = inhibition: at the top concentration
How it was run: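 Cell-based growth assay: transgenic P. falciparum expressing firefly luciferase, cultured in red cells within RPMI 1640 containing 0.5% w/v Albumax, 24 mM bicarbonate and gentamycin. A drop in luciferase activity indicates inhibition.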
With `CCOc1ccccc1N1CCN(C(=O)CCCN2C(=O)c3cccc4cccc(c34)C2=O)CC1` the Potency was inconclusive [inhibitor, partial curve, poor fit].
For `CC1CC(=O)N(c2ccc(Br)cc2)C(=O)C1`, the Potency was inconclusive [inhibitor, full curve].
For `COCCN1C=C(C(=O)OC)C(c2ccccc2Cl)C(C(=O)OC)=C1`, the Potency was inconclusive [inhibitor, full curve, poor fit].
With `Cc1ccc(NC(=O)c2sc3nc[nH]c(=O)c3c2C)c(C)c1` the “activity change, negative = inhibition” value was inactive: 72.5%.
With `CC1CCCCN1C(=O)CSc1nnc(-c2c[nH]c3ccccc23)o1` (stereo unspecified) the Potency was inconclusive [inhibitor, single point].
For `CCOc1ccc(NC(=O)CN2C(=O)COc3ccc(S(=O)(=O)N4CCCCC4)cc32)cc1`, the Potency was inconclusive [inhibitor, partial curve, poor fit].
With `O=C(Nc1cccc(-c2cn3cccnc3n2)c1)c1cccs1` the “activity change, negative = inhibition” value was inactive: 1.63%.
For `Cc1ccc(C2C(C(=O)c3cc4ccccc4o3)=C(O)C(=O)N2CCN2CCOCC2)cc1` (stereo unspecified), the “activity change, negative = inhibition” value was inactive: -25.7%.
In the case of `COc1ccc(OC)c(C(=O)c2ccc(C(=O)Nc3cccc4ccccc34)cc2)c1`, the Potency is reported as inconclusive [inhibitor, partial curve].
With `Cc1ccc(N(C)S(=O)(=O)c2cccc(C(=O)OCC(=O)N3CCCC(C)C3)c2)cc1` (stereo unspecified) the “activity change, negative = inhibition” value was inactive: -13.9%.
In the case of `CCc1ccc(CNC(=O)CCS(=O)(=O)Cc2ccc(C)cc2)cc1`, the “activity change, negative = inhibition” value is reported as inactive: 5.23%.
For `CCOc1ccc(CCNC(=O)CCn2ccc3cc(S(=O)(=O)N4CCCC4)ccc32)cc1`, the Potency was inconclusive [inhibitor, partial curve].
In the case of `O=C(COC(=O)c1ccccc1C(=O)N1CCN(c2ccccc2)CC1)NCc1ccccc1`, the Potency is reported as inconclusive [inhibitor, partial curve, poor fit].
In the case of `O=C(NCC(c1ccco1)N1CCN(c2ccccc2)CC1)C(=O)NC1CC1` (stereo unspecified), the Potency is reported as inconclusive [inhibitor, partial curve, poor fit].
For `CC(=O)Nc1cccc(-c2nc3ccc(NC(C)=O)cc3s2)c1`, the “activity change, negative = inhibition” value was inactive: 60.3%.
For `CCCCCCCCn1c(=O)c(C(=O)OCC)c(O)c2ccccc21`, the Potency was inconclusive [inhibitor, single point].
With `CC(C)(C)[C@@H]1C=C(C(=O)N2CCN(Cc3ccc4c(c3)OCO4)CC2)O[C@H](OCc2ccc(CO)cc2)C1` the Potency was active: 10.4 µM.
In the case of `CC(=O)Nc1ccc(C(=O)Nc2cccc(S(=O)(=O)N(C)c3ccccc3)c2)cc1`, the Potency is reported as active: 9.28 µM.
With `COC(=O)c1c(NC(=O)COC(=O)c2ccc(O)cc2)sc2c1CCCCC2` the Potency was inconclusive [inhibitor, partial curve, poor fit].
With `CC(Oc1ccc2ccccc2c1)C(=O)NNC(=O)Nc1ccccc1F` (stereo unspecified) the “activity change, negative = inhibition” value was inactive: 35.6%.
For `O=C(NCc1ccco1)C1CCN(C(=O)c2cc3sccc3n2Cc2ccc(F)cc2)CC1`, the Potency was active: 1.85 µM.
With `COc1cc2ccccc2cc1C(=O)N(CCN(C)C)c1nc2c(F)cc(F)cc2s1` the Potency was inconclusive [inhibitor, single point].
For `CCN1C(=O)/C(=c2\sc3nc(=O)c(Cc4ccccc4)nn3c2=O)c2ccccc21`, the “activity change, negative = inhibition” value was inactive: 3.86%.
In the case of `NC(=S)N1CCCc2ccccc21`, the Potency is reported as inconclusive [inhibitor, single point].
In the case of `CN(CC(=O)Nc1cccc(F)c1)C(=O)c1ccc2c(c1)CC(c1ccccc1)OC2=O` (stereo unspecified), the Potency is reported as inconclusive [inhibitor, full curve].
For `CC(=O)c1ccc(Oc2cc(-c3ccccc3)nc(-c3ccccc3)n2)cc1`, the Potency was inconclusive [inhibitor, single point].
In the case of `COc1cc(/C=C2/SC(=S)N(c3ccccc3)C2=O)ccc1Oc1nc(N2CCOCC2)nc(N2CCOCC2)n1`, the “activity change, negative = inhibition” value is reported as inactive: 3.75%.
In the case of `Cn1c(SCCOc2cccc(Cl)c2)nnc1-c1ccncc1`, the Potency is reported as inconclusive [inhibitor, partial curve, poor fit].
With `CC(C)C[C@H](NC(=O)c1nc[nH]c1C(=O)NC1CCN(C(=O)OC(C)(C)C)CC1)C(=O)OC(C)(C)C` the Potency was active: 1.47 µM.
For `Cc1ccc(-c2csc(NC(=O)Cn3[nH]c(=O)c4ccccc4c3=O)n2)cc1`, the Potency was inconclusive [inhibitor, single point].
For `O=C(O)c1ccc2c(c1)C(=O)N(c1nccs1)C2=O`, the Potency was active: 3.29 µM.
In the case of `Cc1ccc(NS(=O)(=O)c2ccc(NC(=O)N3CCCCC3)cc2)cc1`, the Potency is reported as inconclusive [inhibitor, single point].
For `N#C/C(=C(/O)c1cccs1)c1nc2ccccc2[nH]1`, the Potency was inconclusive [inhibitor, single point].
For `CC(C)c1ccc(NC(=O)N(CCc2nc3ccccc3[nH]2)C2CCCC2)cc1`, the Potency was inconclusive [inhibitor, partial curve, poor fit].
For `C=C[C@@H]1CN2CC[C@H]1C[C@H]2[C@H](O)c1ccnc2ccccc12`, the Potency was active: 0.135 µM.
For `Cc1ccc(O)c(NC(=O)c2onc(C)c2Cl)c1`, the Potency was active: 11.7 µM.
With `COc1ccc(-n2c(SC3CCOC3=O)nc3ccccc32)cc1` (stereo unspecified) the “activity change, negative = inhibition” value was inactive: -11.3%.
In the case of `CC(=O)Nc1cccc(OCC(=O)Nc2ccccc2)c1`, the “activity change, negative = inhibition” value is reported as inactive: 205%.
With `O=C(NN1C(=O)c2ccccc2NC1c1ccco1)c1ccc(Br)cc1` (stereo unspecified) the “activity change, negative = inhibition” value was inactive: 69.6%.
With `CCCSc1nc(NCc2ccco2)c2c3c(sc2n1)COC(C)(CC)C3` (stereo unspecified) the Potency was active: 9.28 µM.
With `NS(=O)(=O)c1ccc(CCNC(=O)COC(=O)C2CCN(c3ccc(C(F)(F)F)cn3)CC2)cc1` the “activity change, negative = inhibition” value was inactive: 6.27%.
With `CC(=O)C1=C(C)NC(SCC(=O)c2ccc(F)cc2)=C(C#N)C1CC(C)C` (stereo unspecified) the Potency was inconclusive [inhibitor, single point].
In the case of `O=C(CSc1nnc(NC(=O)c2ccc(F)cc2F)s1)NC1CC1`, the “activity change, negative = inhibition” value is reported as inactive: 50.6%.
For `Cc1nn(-c2ccccc2)c(C)c1/C=N/NC(=O)c1cccs1`, the Potency was inconclusive [inhibitor, single point].
In the case of `CCN(C(=O)C1CCCN(c2ncnc3c2nc2n3CCCCC2)C1)c1cccc(Cl)c1` (stereo unspecified), the Potency is reported as inconclusive [inhibitor, full curve, poor fit].
With `CCCCCCN1C2=NCCN2c2ccccc21` the Potency was active: 14.7 µM.
With `CCCN1CCN(CCCNC(=O)Cn2nc(-c3ccc(Cl)cc3)ccc2=O)CC1` the Potency was inconclusive [inhibitor, single point].
For `O=C(CSc1nc2ccccc2c(=O)n1CC1CCCCC1)N1CCOCC1`, the Potency was active: 9.28 µM.
For `Cc1ccsc1/C=N/NC(=O)CNC(=O)c1ccc(S(=O)(=O)N2CCOCC2)cc1`, the Potency was inconclusive [inhibitor, partial curve, poor fit].
In the case of `COc1ccc(C(OCC(O)CNC(C)c2ccccc2)c2ccc(OC)cc2)cc1` (stereo unspecified), the Potency is reported as active: 10.4 µM.
For `CCOC(=O)C1(CC2CCCCO2)CCN(Cc2ccccc2-c2ccco2)CC1` (stereo unspecified), the Potency was inconclusive [inhibitor, partial curve].
With `CC(C)CCOC(=O)/C(=C/c1ccco1)NC(=O)/C=C/c1ccccc1` the Potency was inconclusive [inhibitor, partial curve].
With `O=C(c1ccc(C(=O)N2CCCc3ccccc32)nc1)N1CCCc2ccccc21` the “activity change, negative = inhibition” value was inactive: -30%.
For `O=C1c2cccc3c([N+](=O)[O-])ccc(c23)C(=O)N1Cc1cccnc1`, the Potency was inconclusive [inhibitor, full curve, poor fit].
With `Cc1cc(C)cc(NC(=O)Nc2cnccn2)c1` the “activity change, negative = inhibition” value was inactive: -1.24%.
For `Cc1ccc(CNc2ccc3c(c2)OCO3)c(C)c1`, the Potency was inconclusive [inhibitor, single point].
For `C=CCN1CN(S(=O)(=O)c2cccc(Cl)c2)c2nc3ccccc3nc21`, the Potency was inconclusive [inhibitor, single point].
In the case of `CC(=O)Nc1ccc(S(=O)(=O)N2CCCN(S(=O)(=O)c3ccc(C)cc3)CC2)cc1`, the Potency is reported as inconclusive [inhibitor, partial curve, poor fit].
In the case of `O=C(CN1C(=O)/C(=C\c2cccc(Cl)c2)Sc2ccccc21)NCCCN1CCOCC1`, the “activity change, negative = inhibition” value is reported as inactive: -8.05%.
With `CCc1c(C)nc2c(-c3ccccc3)c(C)[nH]n2c1=O` the “activity change, negative = inhibition” value was inactive: 5.38%.
In the case of `COc1ccc(S(=O)(=O)N2CCN(S(=O)(=O)c3ccc(OC)cc3)CC2)cc1`, the Potency is reported as inconclusive [activator, partial curve].
In the case of `Cc1ccc(C23CC4CC(CC(C(=O)NC(C)C)(C4)C2)C3)cc1`, the “activity change, negative = inhibition” value is reported as inactive: -16.7%.
For `O=C(NCC1CCN(Cc2ccc(F)cc2)CC1)C1CCCN(c2ncnc3c2nc2n3CCCCC2)C1` (stereo unspecified), the Potency was inconclusive [inhibitor, partial curve, poor fit].
For `c1ccc(Cc2nnc(Sc3ccccc3)c3ccccc23)cc1`, the “activity change, negative = inhibition” value was inactive: -11.9%.
In the case of `O=C(CN1C(=O)C(c2ccccc2)Oc2cccnc21)NCc1ccccc1F` (stereo unspecified), the Potency is reported as inconclusive [inhibitor, full curve].
In the case of `Cc1cccc(N2CCN(C(=O)c3cccc(N4CCCC4=O)c3)CC2)c1C`, the Potency is reported as inconclusive [inhibitor, partial curve, poor fit].
In the case of `Cc1ccc(-c2nnc(N3CCCCC3)c3ccccc23)cc1S(=O)(=O)NCC1CCCO1` (stereo unspecified), the Potency is reported as active: 4.65 µM.
In the case of `C/C(=N\NC(=O)c1ccc(-n2cnnn2)cc1)c1ccc(C)cc1`, the Potency is reported as inconclusive [inhibitor, single point].
In the case of `CC1CC(NC(=O)Cc2ccc(Br)cc2)CC(C)(C)C1` (stereo unspecified), the Potency is reported as active: 11.7 µM.
In the case of `COC(=O)c1ccc(Cn2nnc3ccccc3c2=O)o1`, the “activity change, negative = inhibition” value is reported as inactive: 0.323%.
For `O=C(c1ccc2c(c1)OCO2)N(c1ccc(Br)cc1)C1C=CS(=O)(=O)C1` (stereo unspecified), the “activity change, negative = inhibition” value was inactive: -7.3%.
